Experimental data: publication PMC4336329 (PLoS ONE, 2015)
Screen size: about 310,000 compounds; about 2,200 (0.71%) showed an effect of 50% or more. Effects have a minus sign here. This is one part of the list.

Each compound was assayed against human ether-à-go-go-related gene (hERG) potassium channel (human, UniProt Q12809) (assay: primary screen, population patch clamp on CHO cells stably expressing hERG).
Sequence of human ether-à-go-go-related gene (hERG) potassium channel (Q12809 whole entry, looked up): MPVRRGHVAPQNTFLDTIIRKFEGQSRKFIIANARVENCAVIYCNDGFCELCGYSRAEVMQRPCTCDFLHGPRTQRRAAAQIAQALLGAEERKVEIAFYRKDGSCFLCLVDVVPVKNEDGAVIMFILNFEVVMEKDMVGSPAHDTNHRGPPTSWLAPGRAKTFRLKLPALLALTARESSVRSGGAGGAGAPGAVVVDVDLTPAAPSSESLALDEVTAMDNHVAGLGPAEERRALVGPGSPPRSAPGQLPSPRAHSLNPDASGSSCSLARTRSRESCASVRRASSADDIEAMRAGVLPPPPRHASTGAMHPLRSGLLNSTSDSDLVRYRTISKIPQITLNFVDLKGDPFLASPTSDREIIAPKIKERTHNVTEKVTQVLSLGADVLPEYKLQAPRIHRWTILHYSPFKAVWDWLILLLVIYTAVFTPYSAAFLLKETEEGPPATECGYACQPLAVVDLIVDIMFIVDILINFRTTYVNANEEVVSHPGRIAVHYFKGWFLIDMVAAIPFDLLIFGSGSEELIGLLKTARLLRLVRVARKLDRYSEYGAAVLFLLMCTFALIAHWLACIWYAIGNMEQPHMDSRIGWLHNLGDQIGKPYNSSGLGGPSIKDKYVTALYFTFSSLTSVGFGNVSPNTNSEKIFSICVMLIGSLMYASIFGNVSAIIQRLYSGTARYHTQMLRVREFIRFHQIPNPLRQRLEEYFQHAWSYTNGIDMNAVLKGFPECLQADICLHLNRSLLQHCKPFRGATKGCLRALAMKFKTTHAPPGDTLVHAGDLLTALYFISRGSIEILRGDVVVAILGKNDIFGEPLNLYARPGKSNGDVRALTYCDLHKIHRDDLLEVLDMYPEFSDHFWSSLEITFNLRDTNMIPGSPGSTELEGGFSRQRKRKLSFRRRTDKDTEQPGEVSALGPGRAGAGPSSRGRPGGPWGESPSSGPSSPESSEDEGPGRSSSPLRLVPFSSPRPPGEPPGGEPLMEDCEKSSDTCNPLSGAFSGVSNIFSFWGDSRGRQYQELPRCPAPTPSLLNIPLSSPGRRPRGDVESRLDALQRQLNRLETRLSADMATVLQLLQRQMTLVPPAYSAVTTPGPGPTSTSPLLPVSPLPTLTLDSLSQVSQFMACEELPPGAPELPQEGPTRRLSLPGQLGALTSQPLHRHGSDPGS

Row | SMILES | hERG current change (%, negative = inhibition) at 1uM [%]
1 | O=C(O)CSC(C(=O)Nc1ccc(Br)cc1)c1ccc(Cl)cc1 (stereo not drawn) | 10.8
2 | Cc1ccc(C)c(NC(=S)NNC(=O)c2sccc2C)c1 | -0.962
3 | O=C(N/N=C/c1cccc(O)c1)c1cc(C2CC2)nc2ccccc12 | 10.4
4 | Cc1nc2ccccc2c(=O)n1NC(=O)c1ccc([N+](=O)[O-])cc1Cl | 5.29
5 | C=CCN=C1CC(C)(C)CC(=O)/C1=C(\O)CCCN1C(=O)c2ccccc2C1=O | -1.29
6 | COc1ccccc1CC(=O)N1CCOCC1 | 18.6
7 | Oc1ccc(Nc2nc(-c3ccccc3F)nc3ccccc23)cc1 | 12.2
8 | CSc1ccc(CN2CCN(C(=O)c3ccncc3)CC2)cc1 | -0.743
9 | COc1cccc(CN(C)C(=O)CNC(=O)c2ccc(-c3ccccc3)cc2)c1OC | 14.3
10 | O=C(OC(C(=O)Nc1ccc(Cl)cc1C(F)(F)F)c1ccccc1)c1c(Cl)cccc1Cl (stereo not drawn) | 9.62
11 | COC(=O)CCC(=O)Nc1sc(Cc2ccccc2)c(C)c1C(N)=O | 15
12 | CCOC(=O)N1CCC(=NNc2ccc(S(N)(=O)=O)cc2[N+](=O)[O-])CC1 | -6.16
13 | CCCCn1c(N)c(Sc2ccccc2)c(=O)[nH]c1=O | 4.27
14 | COc1ccc(N(CC(=O)Nc2cc(C)on2)S(=O)(=O)c2ccc(Cl)cc2)cc1 | 12.1
15 | CC(C)Nc1nc(NC(C)C)nc(C(N)=O)n1 | 4.9
16 | COc1ccc(CNC(=O)N2CCN(c3ccc(F)cc3)CC2)cc1Cl | 5.88
17 | O=C(Cc1ccc(Cl)cc1)Nc1ccc(CN2CCCCC2)cc1 | -24.2
18 | O=C(O)Cn1c(-c2ccccn2)nc2ccccc21 | 3.01
19 | Cc1noc(C)c1CN1C(=O)NC(Cc2ccccc2)(Cc2ccccc2)C1=O | 10.5
20 | COc1ccc(N(C(=O)CNC(=O)c2cccs2)C(C(=O)NC2CCCC2)c2cccnc2)cc1 (stereo not drawn) | 9.45
21 | CCN(CC)c1ccc(/C=N/NC(=S)NCc2ccccc2)cc1 | 8.08
22 | CC1CCc2cc(F)ccc2N1C(=O)c1cc2nc(-c3ccco3)cc(C(F)(F)F)n2n1 (stereo not drawn) | 17.6

Row | SMILES | hERG current change (%, negative = inhibition) at 1uM [%]
23 | C=C(C)CN(CC)C(=O)CCc1nnc(CCCc2ccccc2)o1 | 10.8
24 | OC(Cn1cncn1)c1ccc(Cl)cc1 (stereo not drawn) | 7.62
25 | O=C(CNc1cc(S(=O)(=O)N2CCCC2)ccc1OCC(F)(F)F)Nc1cc(Cl)cc(Cl)c1 | 3.7
26 | CC(=O)Nc1ccc(S(=O)(=O)NCCC(=O)Nc2ccc(C)cn2)cc1 | 8.79
27 | CCOC(=O)c1cccc(NC(=O)N[C@@H](C)C(=O)OC)c1 | 12.2
28 | COC(=O)c1ccc(C(C(=O)NC2CCCCC2)N(Cc2ccccc2)C(=O)Cc2cccs2)cc1 (stereo not drawn) | 5.76
29 | CCOc1ccc(S(=O)(=O)Nc2ccccc2C(=O)N/N=C/c2c(OC)ccc3ccccc23)cc1 | 2.25
30 | CCC(C)c1ccc(NC(=O)c2cccnc2)cc1 (stereo not drawn) | 7.26
31 | CCOc1ccc(C2N(c3ccc(Cl)cc3)C(=O)C3CCCN32)cc1OC (stereo not drawn) | 0.943
32 | CCS(=O)(=O)Nc1ccc(-c2ccc(NS(=O)(=O)CC)c(OC)c2)cc1OC | 5.36
33 | Cc1ccc(Cn2c(NCCc3ccccc3)nc3c2c(=O)n(C)c(=O)n3C)cc1 | 12.5
34 | CCN(CC)CCN=CC1=C(O)CNC1=O | 8.36
35 | CCCOc1ccc(N2C(=O)CC(N(CCCO)C(=O)CC)C2=O)cc1 (stereo not drawn) | 18.8
36 | COc1ccc(C)cc1NC(=O)Nc1ccncc1 | 12.1
37 | CC(=O)c1ccc(S(=O)(=O)N2CCC(c3nnc(SCCN4CCCC4)n3C)CC2)cc1 | 13.5
38 | CCOC(=O)C1=C(C)N=c2s/c(=C\c3ccc(OCC(=O)O)cc3)c(=O)n2C1c1ccccc1 (stereo not drawn) | 14.6
39 | O=C(COc1ccccc1)N1CCN(c2ncnc3c2cnn3-c2ccccc2)CC1 | -18.9
40 | CCOc1c(C)cnc2c1c(=O)n(Cc1c(F)cccc1Cl)c(=O)n2C | 7.13
41 | CCc1ccc(-c2cc(C)no2)cc1S(=O)(=O)N1CCN(c2ccccn2)CC1 | 13
42 | COC(=O)Cc1c(C)c2ccc(OCC(=O)NCc3ccc4c(c3)OCO4)cc2oc1=O | 10
43 | COCCN(CC(=O)Nc1cccc(C)c1C)C(=O)CN1C(=O)NC2(CCCCC2)C1=O | 15.9
44 | COc1cc(C2/C(=C(\O)c3ccc4c(c3)OCCO4)C(=O)C(=O)N2Cc2ccco2)ccc1O (stereo not drawn) | 11.6

Row | SMILES | hERG current change (%, negative = inhibition) at 1uM [%]
45 | Cc1nc2sccn2c(=O)c1S(=O)(=O)NCCc1ccccc1 | -10.2
46 | O=C(NC(=O)N1CCN(c2ccccc2)CC1)c1ccc(Cl)cc1 | 4.57
47 | CC(Oc1ccc(C(C)(C)C)cc1)c1ccnc2nc(/N=C/N(C)C)nn12 (stereo not drawn) | -8.58
48 | CC1CCC(NC(=O)c2ccc(NC(=O)CC3SC(N4CCCC4)=NC3=O)cc2)CC1 (stereo not drawn) | 12
49 | CCOC(=O)C1CCCN(C(=O)c2ccc(C)cc2O)C1 (stereo not drawn) | 4.54
50 | CC(=O)C1=C(O)C(=O)N(CCC(=O)O)C1c1ccc(Cl)cc1Cl (stereo not drawn) | 15.3
51 | COc1cc(C=C2C(=O)NC(=O)NC2=O)ccc1OS(=O)(=O)c1ccccc1[N+](=O)[O-] | 13.6
52 | Cc1cc(C(=O)Nn2cnnc2)ccc1[N+](=O)[O-] | 13.1
53 | O=C(CSc1nnc(-c2ccco2)n1-c1ccccc1)N1CCN(C(=O)c2ccco2)CC1 | 4.92
54 | CCN(CC)S(=O)(=O)c1ccc(N2CCOCC2)c(NC(=O)COc2ccc(OC)cc2)c1 | -4.52
55 | O=c1ncn(-c2ccc(F)cc2)c2ncccc12 | -3.2
56 | NC(N)=Nc1nc(-c2ccccc2)c2cc(F)ccc2n1 | -15
57 | NS(=O)(=O)c1ccc(CNC(=O)C23CC4CC(CC(C4)C2)C3)cc1 | 16.5
58 | O=C(O)c1ccccc1SCc1ccc2c(c1)OCO2 | 4.59
59 | CN1C(=O)c2ccc(C(=O)Nc3cccnc3)cc2C1=O | 8.96
60 | Cc1ccc(NC(=S)N2CCC(c3ccccc3)C2)c(Cl)c1 (stereo not drawn) | 7.63
61 | Cc1cc(C)nc(Nc2nc(C)c3cc4c(cc3n2)OCO4)n1 | 2.4
62 | Cc1ccnc(NS(=O)(=O)c2ccc(NC(=O)c3c(-c4ccccc4Cl)noc3C)cc2)n1 | 6.93
63 | Cc1cc2nc(-c3ccc(SCC(=O)NC(C)C)nc3)[nH]c2cc1C | 6.59
64 | Cc1oncc1-c1csc(-c2ccccc2Cl)n1 | 3.03
65 | O=C(CCl)N(C/C=C/c1ccccc1)c1ccc2c(c1)OCCO2 | 6.18
66 | CCOC(=O)c1cc(S(=O)(=O)N2CC(C)CC(C)C2)cn1C (stereo not drawn) | 11.5

Row | SMILES | hERG current change (%, negative = inhibition) at 1uM [%]
67 | COC(=O)c1cc2sccc2n1Cc1nc(-c2cccc(Cl)c2)oc1C | 16.5
68 | O=C(NNC(=O)c1ccco1)c1cccc([N+](=O)[O-])c1 | 16.6
69 | Cc1ccc2oc(Nc3nc(C)c(C)c(C)n3)nc2c1 | 15.9
70 | C/C(=N\NC(=O)c1cc(C)nc2ccccc12)c1cccc(Cl)c1 | 19.9
71 | Cc1ccc(C)c(N2CCN(S(=O)(=O)CC34CCC(CC3=O)C4(C)C)CC2)c1 (stereo not drawn) | 14.2
72 | Cc1nnnn1CC(=O)Nc1ccccc1[N+](=O)[O-] | 8.11
73 | CC(=O)Nc1ccc(C(=O)OCc2ccccc2Cl)cc1 | 0.0329
74 | N#Cc1ccccc1Sc1ccccc1C(=O)NCC(c1ccco1)N1CCCCC1 (stereo not drawn) | 9.86
75 | COc1ccc(N2CCN(C(=O)CCNC(=O)Cn3ccc4ccccc4c3=O)CC2)cc1 | 1.6
76 | CCN(C(=O)CN1C(=O)NC2(CCc3ccccc32)C1=O)C1CCS(=O)(=O)C1 (stereo not drawn) | 13
77 | COc1ccc(OCCCC(=O)NCC(C)C)cc1 | 6.87
78 | O=C(NC(Cc1ccc2c(c1)OCO2)C(=O)N1CCCC1C(=O)O)c1ccccc1 (stereo not drawn) | 10.7
79 | COc1cc(/C=N/NC(N)=S)ccc1OC(=O)c1ccc(C)cc1 | 6.94
80 | CC(=O)c1ccc(N2CCN(C(=O)CCCn3c(=O)[nH]c4ccsc4c3=O)CC2)cc1 | 18.7
81 | CC(=O)c1ccc(NC(=O)C(C)NCc2ccccc2Cl)cc1 (stereo not drawn) | 3.61
82 | Cc1nn(-c2ccccc2)c(C)c1/C=C/C(=O)OCC(=O)Nc1ncc(C(F)(F)F)cc1Cl | -2.95
83 | CCc1ccccc1NC(=O)CCS(=O)(=O)c1ccc(C)cc1 | 9.16
84 | COc1ccc(C(=O)NCCCNC(=O)c2cnccn2)cc1Br | 10.1
85 | Cc1ccccc1-c1nnc(SC(C)C(=O)NC2CCCC2)o1 (stereo not drawn) | -11.9
86 | COc1ccc(N2CCN(c3ncccc3C#N)CC2)cc1 | 11.4
87 | CC(Oc1ccc(NC(=O)c2ccco2)cc1)C(=O)N1c2ccccc2CC1C (stereo not drawn) | 13.3
